# Results: the supplement of paper PMC8728848
# The list shows a part of the results.
# B1: MAA (Maackia amurensis), P0DKL3 (protein)
# chain: MATSNSKPTQVLLATFLTFFFLLLNNVNSSDELSFTINNFVPNEADLLFQGEASVSSTGVLQLTRVENGQPQKYSVGRALYAAPVRIWDNTTGSVASFSTSFTFVVKAPNPDITSDGLAFYLAPPDSQIPSGSVSKYLGLFNNSNSDSSNQIVAVELDTYFAHSYDPWDPNYRHIGIDVNGIESIKTVQWDWINGGVAFATITYLAPNKTLIASLVYPSNQTTFSVAASVDLKEILPEWVRVGFSAATGYPTEVETHDVLSWSFTSTLEANCDAATENNVHIARYTA
# What was measured:
# Test in all cases: glycan array binding signal (z-score within array); higher = stronger binding
# Conditions in all cases: glycan notation: IUPAC condensed, linker removed
# [1] = molecular target: Neu5Ac(a2-6)GlcNAc(b1-4)GlcNAc
# Procedure, shortened: (§1)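 Negative Z-scores can be read as non-binding. The Z-score is calculated within each array and then averaged across arrays of one protein sequence at different concentrations or buffers and across linkers. Arrays, 3228 in all, were curated from the Consortium for Functional Glycomics database and kept only where the protein sequence was available.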
# [2] = molecular target: Neu5Ac(a2-6)GlcNAc(b1-4)GlcNAc(b1-4)GlcNAc
# Procedure, shortened: as §1
# [3] = molecular target: Neu5Ac(a2-8)Neu5Ac
# Procedure, shortened: as §1
# [4] = molecular target: Neu5Ac(a2-8)Neu5Ac(a2-3)Gal(b1-3)GalNAc(b1-4)[Neu5Ac(a2-3)]Gal(b1-4)Glc
# Procedure, shortened: as §1
# [5] = molecular target: Neu5Ac(a2-8)Neu5Ac(a2-3)Gal(b1-3)GalNAc(b1-4)[Neu5Ac(a2-8)Neu5Ac(a2-3)]Gal(b1-4)Glc
# Procedure, shortened: as §1
# [6] = molecular target: Neu5Ac(a2-8)Neu5Ac(a2-3)Gal(b1-4)Glc
# Procedure, shortened: as §1
# [7] = molecular target: Neu5Ac(a2-8)Neu5Ac(a2-3)Gal(b1-4)GlcNAc
# Procedure, shortened: as §1
# [8] = molecular target: Neu5Ac(a2-8)Neu5Ac(a2-3)[Gal(b1-3)GalNAc(b1-4)]Gal(b1-4)Glc
# Procedure, shortened: as §1
# [9] = molecular target: Neu5Ac(a2-8)Neu5Ac(a2-3)[GalNAc(b1-4)]Gal(b1-4)Glc
# Procedure, shortened: as §1
# [10] = molecular target: Neu5Ac(a2-8)Neu5Ac(a2-8)Neu5Ac
# Procedure, shortened: as §1
# [11] = molecular target: Neu5Ac(a2-8)Neu5Ac(a2-8)Neu5Ac(a2-3)Gal(b1-4)Glc
# Procedure, shortened: as §1
# [12] = molecular target: Neu5Ac(a2-8)Neu5Ac(a2-8)Neu5Ac(a2-3)[Gal(b1-3)GalNAc(b1-4)]Gal(b1-4)Glc
# Procedure, shortened: as §1
# [13] = molecular target: Neu5Ac(a2-8)Neu5Ac(a2-8)Neu5Ac(a2-3)[GalNAc(b1-4)]Gal(b1-4)Glc
# Procedure, shortened: as §1
# [14] = molecular target: Neu5Ac(a2-8)Neu5Ac(a2-8)Neu5Ac(a2-8)Neu5Ac(a2-3)[GalNAc(b1-4)]Gal(b1-4)Glc
# Procedure, shortened: as §1
# [15] = molecular target: Neu5Ac(a2-8)Neu5Gc(a2-3)Gal(b1-4)GlcNAc
# Procedure, shortened: as §1
# [16] = molecular target: Neu5Ac(b1-6)GalNAc
# Procedure, shortened: as §1
# [17] = molecular target: Neu5Ac(b2-6)Gal(b1-4)GlcNAc
# Procedure, shortened: as §1
# [18] = molecular target: Neu5Ac(b2-6)GalNAc
# Procedure, shortened: as §1
# [19] = molecular target: Neu5Ac9Ac(a2-3)Gal(b1-3)GlcNAc
# Procedure, shortened: as §1
# [20] = molecular target: Neu5Ac9Ac(a2-3)Gal(b1-4)GlcNAc
# Procedure, shortened: as §1
# [21] = molecular target: Neu5Ac9Ac(a2-6)Gal(b1-4)GlcNAc
# Procedure, shortened: as §1
# [22] = molecular target: Neu5Gc(a2-3)Gal(b1-3)GlcNAc
# Procedure, shortened: as §1
# [23] = molecular target: Neu5Gc(a2-3)Gal(b1-3)[Fuc(a1-4)]GlcNAc
# Procedure, shortened: as §1
# [24] = molecular target: Neu5Gc(a2-3)Gal(b1-4)Glc
# Procedure, shortened: as §1
# [25] = molecular target: Neu5Gc(a2-3)Gal(b1-4)GlcNAc
# Procedure, shortened: as §1
# [26] = molecular target: Neu5Gc(a2-3)Gal(b1-4)GlcNAc(b1-3)Gal(b1-4)GlcNAc(b1-2)Man(a1-3)[Neu5Gc(a2-3)Gal(b1-4)GlcNAc(b1-3)Gal(b1-4)GlcNAc(b1-2)Man(a1-6)]Man(b1-4)GlcNAc(b1-4)GlcNAc
# Procedure, shortened: as §1
# [27] = molecular target: Neu5Gc(a2-3)Gal(b1-4)[Fuc(a1-3)]GlcNAc
# Procedure, shortened: as §1
# [28] = molecular target: Neu5Gc(a2-6)Gal(b1-4)GlcNAc
# Procedure, shortened: as §1
# [29] = molecular target: Neu5Gc(a2-6)GalNAc
# Procedure, shortened: as §1
# [30] = molecular target: Neu5Gc(a2-8)Neu5Ac(a2-3)Gal(b1-4)GlcNAc
# Procedure, shortened: as §1
# [31] = molecular target: Neu5Gc(a2-8)Neu5Gc(a2-3)Gal(b1-4)GlcNAc
# Procedure, shortened: as §1
# [32] = molecular target: Neu5Gc(a2-8)Neu5Gc(a2-3)Gal(b1-4)GlcNAc(b1-3)Gal(b1-4)GlcNAc
# Procedure, shortened: as §1
# [33] = molecular target: Neu5Gc(a2-8)Neu5Gc(a2-6)Gal(b1-4)GlcNAc
# Procedure, shortened: as §1
# [34] = molecular target: Neu5Gc(b2-6)Gal(b1-4)GlcNAc
# Procedure, shortened: as §1
binder,measurement,setting,value
B1,glycan array binding signal (z-score),[1],0.105
same,glycan array binding signal (z-score),[2],0.131
same,glycan array binding signal (z-score),[3],-0.169
same,glycan array binding signal (z-score),[4],-0.296
same,glycan array binding signal (z-score),[5],-0.282
same,glycan array binding signal (z-score),[6],0.457
same,glycan array binding signal (z-score),[7],0.479
same,glycan array binding signal (z-score),[8],-0.164
same,glycan array binding signal (z-score),[9],-0.288
same,glycan array binding signal (z-score),[10],-0.226
same,glycan array binding signal (z-score),[11],0.292
same,glycan array binding signal (z-score),[12],-0.008
same,glycan array binding signal (z-score),[13],-0.155
same,glycan array binding signal (z-score),[14],-0.214
same,glycan array binding signal (z-score),[15],0.778
same,glycan array binding signal (z-score),[16],-0.207
same,glycan array binding signal (z-score),[17],-0.208
same,glycan array binding signal (z-score),[18],-0.242
same,glycan array binding signal (z-score),[19],-0.247
same,glycan array binding signal (z-score),[20],0.656
same,glycan array binding signal (z-score),[21],-0.28
same,glycan array binding signal (z-score),[22],-0.199
same,glycan array binding signal (z-score),[23],-0.23
same,glycan array binding signal (z-score),[24],0.177
same,glycan array binding signal (z-score),[25],0.834
same,glycan array binding signal (z-score),[26],2.07
same,glycan array binding signal (z-score),[27],-0.216
same,glycan array binding signal (z-score),[28],-0.169
same,glycan array binding signal (z-score),[29],-0.235
same,glycan array binding signal (z-score),[30],0.454
same,glycan array binding signal (z-score),[31],0.744
same,glycan array binding signal (z-score),[32],1.13
same,glycan array binding signal (z-score),[33],-0.279
same,glycan array binding signal (z-score),[34],-0.057
